This list was built around the results that the source calls inconclusive (neither active nor inactive); the mix of calls is not that of the screen. No potency is given beside an inconclusive call; the fits are too rough. The source made the active and inactive calls. Calls come from the whole dose curve; as a rule, active = well fitted inhibition curve with a large enough effect; inconclusive = small, poorly fitted or top-dose-only effect; inactive = no such curve, though single readings can be large or run the other way.
target: Glutaminase kidney isoform, mitochondrial (Homo sapiens) (UniProt O94925); assay: qHTS for Inhibitors of Glutaminase (GLS): LOPAC Validation (AID 624146); settings: glutaminase enzyme activity inhibition; series mostly up to 46.1 µM; note: nearly all actives have a fitted effect of over 60% in size
UniProt O94925, sequence (O94925 whole entry, looked up, canonical isoform): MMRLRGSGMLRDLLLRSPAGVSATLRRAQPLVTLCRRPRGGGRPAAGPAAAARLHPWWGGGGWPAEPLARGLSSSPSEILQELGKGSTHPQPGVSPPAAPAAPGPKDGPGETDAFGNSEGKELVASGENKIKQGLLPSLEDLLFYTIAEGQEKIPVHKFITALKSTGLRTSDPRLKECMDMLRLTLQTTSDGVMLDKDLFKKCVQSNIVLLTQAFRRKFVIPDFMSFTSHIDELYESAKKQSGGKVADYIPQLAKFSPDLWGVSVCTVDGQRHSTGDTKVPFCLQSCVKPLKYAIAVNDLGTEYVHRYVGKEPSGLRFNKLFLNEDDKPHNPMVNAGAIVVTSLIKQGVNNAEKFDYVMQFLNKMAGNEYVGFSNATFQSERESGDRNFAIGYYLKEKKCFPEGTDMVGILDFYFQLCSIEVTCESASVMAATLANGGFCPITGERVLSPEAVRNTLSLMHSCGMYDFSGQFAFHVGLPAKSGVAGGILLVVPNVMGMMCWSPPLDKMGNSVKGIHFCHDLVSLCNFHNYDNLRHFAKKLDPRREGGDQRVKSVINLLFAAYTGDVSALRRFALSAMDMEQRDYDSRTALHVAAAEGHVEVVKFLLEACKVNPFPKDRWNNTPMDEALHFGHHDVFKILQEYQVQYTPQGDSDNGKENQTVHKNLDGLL
From the text: Glutaminase (GLS) catalyzes the hydrolysis of glutamine into glutamate and ammonia. It plays a critical role in glutaminolysis, which is an important energy source for proliferating cells. It was shown that c-Myc, an oncogenic transcription factor known to regulate microRNAs and to stimulate cell proliferation, increases glutamine metabolism by stimulating the expression of GLS via direct suppression of miR23a and miR23b.
GLS is also thought to play a pathogenic role on HAD using a human HIV-1 infected macrophage system. […] GLS inhibition limits glutamate release and provides neuroprotection against HIV-1 infected macrophages.
The overall goal of this project is to identify small molecule inhibitors of GLS through quantitative high throughput screening (qHTS) of the MLSMR. A validated potent and selective inhibitor can be used as a tool molecule to further study the pharmacology of its target as well as explore its potential therapeutic application in cancer and inflammatory neurological disorders, such as HIV1-associated dementia (HAD) and multiple sclerosis.
NIH Chemical Genomics Center [NCGC]
NIH Molecular Libraries Probe Centers Network [MLPCN]
Assay Submitter (PI): Barbara S. Slusher, Johns Hopkins University
Three 3 uL of hKGA is dispensed into black well 1536-well plates in 45 mM KH2PO4 (pH 8.2), 0.02% Tween-20. Then 23 nL of compounds are added through pin tool transfer. To this, 1 uL of 1mM L-Glutamine and 1 uL of a solution of L-Glutamateoxidase, HRP, Amplex red are added. Plate is centrifuged for 25 sec before an initial fluorescence read is obtained on the ViewLux, after 30 min of RT incubation, the final read is taken on the ViewLux.
Potency is the fitted concentration of half-maximal effect; tags give direction and shape of the fitted curve.

| SMILES | Potency |
| --- | --- |
| CC1(C)CCC2=C(O1)c1ccccc1C(=O)C2=O | inconclusive [inhibitor, partial curve] |
| O=C(Nc1cccc(C(=O)Nc2ccc(S(=O)(=O)O)c3cc(S(=O)(=O)O)cc(S(=O)(=O)O)c23)c1)Nc1cccc(C(=O)Nc2ccc(S(=O)(=O)O)c3cc(S(=O)(=O)O)cc(S(=O)(=O)O)c23)c1 | inconclusive [inhibitor, partial curve, poor fit] |
| Cc1cc(O)c2c(c1)C(=O)c1cc(O)cc(O)c1C2=O | inconclusive [inhibitor, full curve] |
| NC[C@@H]1O[C@H](C23CC4CC(CC(C4)C2)C3)Cc2c1ccc(O)c2O | inactive |
| NC(=O)c1ccccc1 | inactive |
| N[C@@H](Cc1c[nH]c2ccc(O)cc12)C(=O)O | active: 1.12 µM |
| Cc1nn(-c2ccccc2)c(C)c1/C=N/N1CCN(Cc2ccccc2)CC1 | inactive |
| NC(CO)C(=O)NNCc1ccc(O)c(O)c1O (stereo not given) | inconclusive [inhibitor, single point] |
| CCN1/C(=C/C(C)=O)Sc2ccc(OC)cc21 | inactive |
| Cc1cccc(C#Cc2ccccc2)n1 | inconclusive [inhibitor, full curve, poor fit] |
| CC1=C(CC(=O)O)c2cc(F)ccc2/C1=C\c1ccc(S(C)=O)cc1 (stereo not given) | inconclusive [inhibitor, partial curve, poor fit] |
| Cc1[nH]c(=O)c(C#N)cc1-c1ccc2nccn2c1 | inconclusive [inhibitor, partial curve, poor fit] |
| Oc1ccc(/C=C/c2cc(O)cc(O)c2)cc1 | active: 5.01 µM |
| CC(C)NC[C@@H](O)c1ccc(O)c(O)c1 | inconclusive [inhibitor, full curve] |
| CCc1ccc(/C=C2/SC(=S)NC2=O)cc1 | inactive |
| NNc1nncc2ccccc12 | inconclusive [inhibitor, partial curve, poor fit] |
| O[Si](CCCN1CCCCC1)(c1ccc(F)cc1)C1CCCCC1 (stereo not given) | inactive |
| O=C1NC(=O)/C(=C/c2ccc(-c3ccc(F)cc3O)o2)S1 | inconclusive [inhibitor, partial curve, poor fit] |
| COc1ccc2cc([C@H](C)C(=O)O)ccc2c1 | inactive |
| CN1CCc2cccc3c2C1Cc1ccc(O)c(O)c1-3 (stereo not given) | active: 4.47 µM |

| SMILES | Potency |
| --- | --- |
| Nc1c(S(=O)(=O)O)cc(Nc2ccc(Nc3nc(Cl)nc(Nc4ccc(S(=O)(=O)O)cc4)n3)c(S(=O)(=O)O)c2)c2c1C(=O)c1ccccc1C2=O | inconclusive [inhibitor, partial curve] |
| O=c1onc2cnc3ccccc3n12 | active: 7.08 µM |
| Nc1nc(Cl)nc2c1ncn2[C@@H]1O[C@H](COP(=O)(O)OP(=O)(O)OP(=O)(O)O)[C@@H](O)[C@H]1O | inactive |
| O=C1NC(=O)C(c2ccccc2[N+](=O)[O-])=C1Nc1ccc(O)c(Cl)c1 | active: 10 µM |
| CC(C)NCC(O)c1ccc(O)c(O)c1 (stereo not given) | inconclusive [inhibitor, full curve, poor fit] |
| Cn1ccc2cc3c(cc21)CCN3C(=O)Nc1cccnc1 | inconclusive [inhibitor, partial curve] |
| Oc1ccc(O)cc1 | active: 2.51 µM |
| N#C/C(=C\c1ccc(O)c(O)c1)C(=O)c1ccc(O)c(O)c1 | inconclusive [inhibitor, full curve, poor fit] |
| CC(C)c1ccc2c(c1)c(SC(C)(C)C)c(CC(C)(C)C(=O)O)n2Cc1ccc(Cl)cc1 | inconclusive [inhibitor, partial curve, poor fit] |
| O=c1c(O)c(-c2ccc(O)c(O)c2)oc2cc(O)cc(O)c12 | inconclusive [inhibitor, full curve, poor fit] |
| Oc1ccc2ccccc2c1SSc1c(O)ccc2ccccc12 | inconclusive [inhibitor, partial curve, poor fit] |
| Oc1ccc(C2CNCc3sccc32)cc1O (stereo not given) | inconclusive [inhibitor, full curve, poor fit] |
| O=Nc1c(-c2c(O)[nH]c3cc(Br)ccc23)[nH]c2ccccc12 | inconclusive [inhibitor, partial curve, poor fit] |
| CN1C2CCC1CC(OC(=O)C(O)c1ccccc1)C2 (stereo not given) | inactive |
| CC(=O)/C=C1\C(=O)N(C)c2ccccc21 | inconclusive [inhibitor, partial curve, poor fit] |
| CNC(=O)Oc1ccc2c(c1)[C@]1(C)CCN(C)[C@@H]1N2C | active: 10 µM |
| COc1cc2c(cc1O)CC[C@@H]1[C@@H]2CC[C@]2(C)[C@@H](O)CC[C@@H]12 | active: 1.58 µM |
| Cc1cc(C(C)(C)C)c(O)c(C)c1CC1=NCCN1 | inconclusive [inhibitor, full curve] |
| O=C1c2ccccc2C(=O)c2c(NCCc3ccc(O)cc3)ccc(NCCc3ccc(O)cc3)c21 | inconclusive [inhibitor, partial curve] |
| Cc1c(OCC(F)(F)F)ccnc1CS(=O)c1nc2ccccc2[nH]1 (stereo not given) | inconclusive [inhibitor, partial curve] |

— PubChem BioAssay (NCATS)
